Source: paper PMC5892938
The list shows a part of the results. At the low end of the ranking, values are background and their order means little.

target: GST-SBP-SLBP (stem-loop binding protein) (UniProt Q14493); experiment: targeted RNA Bind-n-Seq; settings: RBNS binding buffer: 25 mM Tris pH 7.5, 150 mM KCl, 3 mM MgCl2, 0.1% Tween, 0.5 mg/mL BSA, 1 mM DTT; 27 nM protein, 750 pM RNA pool; temperature not stated; high values mean tight binding;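 also: DESeq read counts versus GST-SBP nonspecific binding control pulldown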

Sequence	binding signal (log2 fold change)
GGUCACGUCUCAAUCAACUCUUAAGAGGGGGGGAAAACCCCUUUACCCUCAUCCUCAACAGCUCGCAGUCAAG	-0.216
GGUCACGUCUCAAUCAACUCUUCGUCAGGAGUUUUCUCCUGUUUUUUCAACAGCUCGCAGUCAAG	-0.13
GGUCACGUCUCAAUCAACUCUAUCUCAGGAGUUUUCUCCUGCUUAUUCAACAGCUCGCAGUCAAG	0.0835
GGUCACGUCUCAAUCAACUCAACUUCAGGAGUUUUCUCCUGCUAACUCAACAGCUCGCAGUCAAG	0.0627
GGUCACGUCUCAAUCAACUCAAUUUCCAGGGAAAUCCCUGGCAUUCUCAACAGCUCGCAGUCAAG	0.19
GGUCACGUCUCAAUCAACUCAAUUUCCAGGGAAAUCCCUGGCGUUUUCAACAGCUCGCAGUCAAG	-0.0558
GGUCACGUCUCAAUCAACUCAAUCUCCAGGGAAAUCCCUGGCUAACUCAACAGCUCGCAGUCAAG	0.242
GGUCACGUCUCAAUCAACUCCUCAGAGGGGGGGAAAACCCCUUUACCCUCGUCCUCAACAGCUCGCAGUCAAG	0.382
GGUCACGUCUCAAUCAACUCUUUCCCCAGGGAAACCCCUGGCAUUUUCAACAGCUCGCAGUCAAG	-0.0793
GGUCACGUCUCAAUCAACUCUAAAGAGGGGGGGAAAACCCCUUUGCCCUCAACAUCAACAGCUCGCAGUCAAG	-0.0585
GGUCACGUCUCAAUCAACUCUUCCCCCAGGGAAAACCCUGGUAAACUCAACAGCUCGCAGUCAAG	0.177
GGUCACGUCUCAAUCAACUCAUUCCCCAGGGAAACCCCUGGUAAUUUCAACAGCUCGCAGUCAAG	-0.244
GGUCACGUCUCAAUCAACUCUAUCCCCAGGGAAAGCCCUGGCAAUUUCAACAGCUCGCAGUCAAG	0.261
GGUCACGUCUCAAUCAACUCCCUGGAGGGGGGGAAAACCCCUUUACCCUCAAUAUCAACAGCUCGCAGUCAAG	0.169
GGUCACGUCUCAAUCAACUCCUCAGAGGGGGGGAAAACCCCUUUACCCUCAAACUCAACAGCUCGCAGUCAAG	-0.277
GGUCACGUCUCAAUCAACUCUUCGUCCAGGGAAAACCCUGGUAUUUUCAACAGCUCGCAGUCAAG	-0.147
GGUCACGUCUCAAUCAACUCAUUCUCAGGAGUUUUCUCCUGUAUUCUCAACAGCUCGCAGUCAAG	-0.0497
GGUCACGUCUCAAUCAACUCAUCCUCAGGAGUUUCCUCCUGUAAAGUCAACAGCUCGCAGUCAAG	0.042
GGUCACGUCUCAAUCAACUCAUAAGAGGGGGGGAAAACCCCUUUACCCUCAUCAUCAACAGCUCGCAGUCAAG	-0.306
GGUCACGUCUCAAUCAACUCAUCCUCCAGGGAAAACCCUGGCUAAUUCAACAGCUCGCAGUCAAG	0.176
GGUCACGUCUCAAUCAACUCUUUAGAGGGGGGGAAAACCCCUUUACCCUCCACUUCAACAGCUCGCAGUCAAG	-0.733
GGUCACGUCUCAAUCAACUCAUCUUCAGGAGUUUUCUCCUGUUUUUUCAACAGCUCGCAGUCAAG	-0.187
GGUCACGUCUCAAUCAACUCAGUCCCCAGGGAAAUCCCUGGCAUAUUCAACAGCUCGCAGUCAAG	-0.0274
GGUCACGUCUCAAUCAACUCAUUCUCAGGAGUUUUCUCCUGCUAUUUCAACAGCUCGCAGUCAAG	0.0836
GGUCACGUCUCAAUCAACUCAAAAGAGGGGGGGAAAACCCCUUUGCCCUCGUCAUCAACAGCUCGCAGUCAAG	-0.00746

Sequence	binding signal (log2 fold change)
GGUCACGUCUCAAUCAACUCUUUCCCCAGGGAAACCCCUGGCAAUCUCAACAGCUCGCAGUCAAG	-0.307
GGUCACGUCUCAAUCAACUCAUAAGAGGGGGGGAAAACCCCUUUGCCCUCCAACUCAACAGCUCGCAGUCAAG	-0.339
GGUCACGUCUCAAUCAACUCUUCUCCCAGGGAAAGCCCUGGCAAAUUCAACAGCUCGCAGUCAAG	0.0797
GGUCACGUCUCAAUCAACUCCCCGGAGGGGGGGAAAACCCCUUUACCCUCAACAUCAACAGCUCGCAGUCAAG	-0.226
GGUCACGUCUCAAUCAACUCCCACGAGGGGGGGAAAACCCCUUUACCCUCAUAAUCAACAGCUCGCAGUCAAG	-0.177
GGUCACGUCUCAAUCAACUCAUCUUCAGGAGUUUGCUCCUGUAUUUUCAACAGCUCGCAGUCAAG	-0.00449
GGUCACGUCUCAAUCAACUCUAUCGAGGGGGGGAAAACCCCUUUACCCUCUUCAUCAACAGCUCGCAGUCAAG	0.0731
GGUCACGUCUCAAUCAACUCCAACGAGGGGGGGAAAACCCCUUUACCCUCAUCAUCAACAGCUCGCAGUCAAG	-0.0309
GGUCACGUCUCAAUCAACUCAGUUCCCAGGGAAAACCCUGGCUUUUUCAACAGCUCGCAGUCAAG	0.0382
GGUCACGUCUCAAUCAACUCAUCCCCCAGGGAAAACCCUGGCAAUUUCAACAGCUCGCAGUCAAG	0.169
GGUCACGUCUCAAUCAACUCAUUUUCCAGGGAAAGCCCUGGUUAUUUCAACAGCUCGCAGUCAAG	-0.0778
GGUCACGUCUCAAUCAACUCUUCCUCAGGAGUUUACUCCUGCAUAUUCAACAGCUCGCAGUCAAG	-0.0848
GGUCACGUCUCAAUCAACUCAUUUUCCAGGGAAAUCCCUGGCUAUCUCAACAGCUCGCAGUCAAG	-0.125
GGUCACGUCUCAAUCAACUCCUAAGAGGGGGGGAAAACCCCUUUACCCUCAAAUUCAACAGCUCGCAGUCAAG	0.127
GGUCACGUCUCAAUCAACUCAUCCCCAGGAGUUUGCUCCUGUAAUUUCAACAGCUCGCAGUCAAG	-0.0675
GGUCACGUCUCAAUCAACUCUUUCUCCAGGGAAAGCCCUGGUUAACUCAACAGCUCGCAGUCAAG	-0.011
GGUCACGUCUCAAUCAACUCAUUCUCCAGGGAAAACCCUGGUUUUCUCAACAGCUCGCAGUCAAG	0.0993
GGUCACGUCUCAAUCAACUCAAUAGAGGGGGGGAAAACCCCUUUGCCCUCAACAUCAACAGCUCGCAGUCAAG	0.421
GGUCACGUCUCAAUCAACUCAUACGAGGGGGGGAAAACCCCUUUGCCCUCACAAUCAACAGCUCGCAGUCAAG	-0.414
GGUCACGUCUCAAUCAACUCCUUCGAGGGGGGGAAAACCCCUUUACCCUCUUAUUCAACAGCUCGCAGUCAAG	-0.621
GGUCACGUCUCAAUCAACUCAUUCCCAGGAGUUUUCUCCUGCUUUUUCAACAGCUCGCAGUCAAG	-0.0472
GGUCACGUCUCAAUCAACUCCUCCGAGGGGGGGAAAACCCCUUUACCCUCAUUAUCAACAGCUCGCAGUCAAG	-0.254
GGUCACGUCUCAAUCAACUCAUCUCCAGGAGUUUUCUCCUGUUAUUUCAACAGCUCGCAGUCAAG	-0.153
GGUCACGUCUCAAUCAACUCAUCUCCAGGAGUUUCCUCCUGCUUUUUCAACAGCUCGCAGUCAAG	0.328
GGUCACGUCUCAAUCAACUCAAUCGAGGGGGGGAAAACCCCUUUGCCCUCAAUAUCAACAGCUCGCAGUCAAG	0.0668

Sequence	binding signal (log2 fold change)
GGUCACGUCUCAAUCAACUCUUAAGAGGGGGGGAAAACCCCUUUACCCUCCCAAUCAACAGCUCGCAGUCAAG	0.0769
GGUCACGUCUCAAUCAACUCUAUCCCAGGAGUUUCCUCCUGUUAAUUCAACAGCUCGCAGUCAAG	0.0245
GGUCACGUCUCAAUCAACUCAUCUCCCAGGGAAAGCCCUGGUUUAUUCAACAGCUCGCAGUCAAG	0.0359
GGUCACGUCUCAAUCAACUCAUCUCCAGGAGUUUACUCCUGUUUUCUCAACAGCUCGCAGUCAAG	-0.344
GGUCACGUCUCAAUCAACUCAAUCCCAGGAGUUUCCUCCUGUAUACUCAACAGCUCGCAGUCAAG	0.0945
GGUCACGUCUCAAUCAACUCAACGCCAGGAGUUUACUCCUGCUUAUUCAACAGCUCGCAGUCAAG	-0.252
GGUCACGUCUCAAUCAACUCUAAAGAGGGGGGGAAAACCCCUUUGCCCUCACUUUCAACAGCUCGCAGUCAAG	0.415
GGUCACGUCUCAAUCAACUCAUCCUCAGGAGUUUUCUCCUGCAUACUCAACAGCUCGCAGUCAAG	0.0105
GGUCACGUCUCAAUCAACUCAACUUCCAGGGAAAGCCCUGGCUAACUCAACAGCUCGCAGUCAAG	-0.0158
GGUCACGUCUCAAUCAACUCUUCUUCAGGAGUUUACUCCUGUAUAUUCAACAGCUCGCAGUCAAG	0.0626
GGUCACGUCUCAAUCAACUCUUAAGAGGGGGGGAAAACCCCUUUACCCUCGCCAUCAACAGCUCGCAGUCAAG	0.455
GGUCACGUCUCAAUCAACUCAGUUCCAGGAGUUUCCUCCUGUAUAUUCAACAGCUCGCAGUCAAG	-0.059
GGUCACGUCUCAAUCAACUCAACGCCAGGAGUUUACUCCUGCUAAUUCAACAGCUCGCAGUCAAG	-0.0116
GGUCACGUCUCAAUCAACUCUCAAGAGGGGGGGAAAACCCCUUUACCCUCGUCAUCAACAGCUCGCAGUCAAG	-0.424
GGUCACGUCUCAAUCAACUCUUCUCCCAGGGAAAUCCCUGGUUUUUUCAACAGCUCGCAGUCAAG	-0.12
GGUCACGUCUCAAUCAACUCAAUUUCAGGAGUUUACUCCUGUAUAUUCAACAGCUCGCAGUCAAG	0.124
GGUCACGUCUCAAUCAACUCAUCCUCAGGAGUUUGCUCCUGCAAUCUCAACAGCUCGCAGUCAAG	0.164
GGUCACGUCUCAAUCAACUCAUCCCCAGGAGUUUUCUCCUGUUAAGUCAACAGCUCGCAGUCAAG	0.213
GGUCACGUCUCAAUCAACUCUAUCCCCAGGGAAACCCCUGGCUUUCUCAACAGCUCGCAGUCAAG	-0.0276
GGUCACGUCUCAAUCAACUCUACUCCAGGAGUUUUCUCCUGCAUAUUCAACAGCUCGCAGUCAAG	-0.074
GGUCACGUCUCAAUCAACUCAUCCUCAGGAGUUUCCUCCUGCUAAUUCAACAGCUCGCAGUCAAG	0.166
GGUCACGUCUCAAUCAACUCUUUCUCCAGGGAAAACCCUGGCAAUGUCAACAGCUCGCAGUCAAG	-0.0529
GGUCACGUCUCAAUCAACUCACUAGAGGGGGGGAAAACCCCUUUGCCCUCCAAUUCAACAGCUCGCAGUCAAG	0.242
